# This is one part of the list.
# Key:
# Experiment in all cases: glycan array binding signal (z-score within array); higher = stronger binding
# Details in all cases: glycan notation: IUPAC condensed, linker removed
# [1] = biological target: Gal(b1-4)GlcNAc(b1-3)Gal(b1-4)GlcNAc(b1-3)[Gal(b1-4)GlcNAc(b1-3)Gal(b1-4)GlcNAc(b1-6)]GalNAc
# Summary of the method: (§1)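 Glycan array data came from 3228 arrays in the Consortium for Functional Glycomics database, and only arrays with an available protein sequence were kept. Glycan names were put into IUPAC-condensed notation, and columns mapping to the same glycan were averaged. The binding signal is a within-array Z-score, averaged across arrays of one protein sequence run at different concentrations or buffers and across linkers. A negative Z-score can be read as non-binding.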
# [2] = biological target: Gal(b1-4)GlcNAc(b1-3)Gal(b1-4)GlcNAc(b1-6)[Gal(b1-3)]GalNAc
# Summary of the method: as §1
# [3] = biological target: Gal(b1-4)GlcNAc(b1-3)Gal(b1-4)[Fuc(a1-3)]GlcNAc(b1-3)Gal(b1-4)[Fuc(a1-3)]GlcNAc
# Summary of the method: as §1
# [4] = biological target: Gal(b1-4)GlcNAc(b1-3)GalNAc
# Summary of the method: as §1
# [5] = biological target: Gal(b1-4)GlcNAc(b1-3)[Fuc(a1-3)GlcNAc(b1-6)]Gal(b1-4)Glc
# Summary of the method: as §1
# [6] = biological target: Gal(b1-4)GlcNAc(b1-3)[Gal(b1-4)GlcNAc(b1-6)]Gal(b1-4)GlcNAc
# Summary of the method: as §1
# [7] = biological target: Gal(b1-4)GlcNAc(b1-3)[GlcNAc(b1-6)]Gal(b1-4)GlcNAc
# Summary of the method: as §1
# [8] = biological target: Gal(b1-4)GlcNAc(b1-6)Gal(b1-4)GlcNAc
# Summary of the method: as §1
# [9] = biological target: Gal(b1-4)GlcNAc(b1-6)GalNAc
# Summary of the method: as §1
# [10] = biological target: Gal(b1-4)GlcNAc(b1-6)[Gal(b1-3)]GalNAc
# Summary of the method: as §1
# [11] = biological target: Gal(b1-4)GlcNAc(b1-6)[Gal(b1-4)GlcNAc(b1-3)]GalNAc
# Summary of the method: as §1
# [12] = biological target: Gal(b1-4)GlcNAc6P
# Summary of the method: as §1
# [13] = biological target: Gal(b1-6)Gal
# Summary of the method: as §1
# [14] = biological target: Gal3S(b1-3)GalNAc
# Summary of the method: as §1
# [15] = biological target: Gal3S(b1-3)GlcNAc
# Summary of the method: as §1
# [16] = biological target: Gal3S(b1-3)[Fuc(a1-4)]GlcNAc
# Summary of the method: as §1
# [17] = biological target: Gal3S(b1-4)Glc
# Summary of the method: as §1
# [18] = biological target: Gal3S(b1-4)Glc6S
# Summary of the method: as §1
# [19] = biological target: Gal3S(b1-4)GlcNAc
# Summary of the method: as §1
# [20] = biological target: Gal3S(b1-4)[Fuc(a1-3)]Glc6S
# Summary of the method: as §1
# [21] = biological target: Gal3S(b1-4)[Fuc(a1-3)]GlcNAc
# Summary of the method: as §1
# [22] = biological target: Gal3S(b1-4)[Fuc(a1-3)]GlcNAc6S
# Summary of the method: as §1
# [23] = biological target: Gal3S4S(b1-4)GlcNAc
# Summary of the method: as §1
# [24] = biological target: Gal3S6S(b1-4)GlcNAc
# Summary of the method: as §1
# [25] = biological target: Gal3S6S(b1-4)GlcNAc6S
# Summary of the method: as §1
# [26] = biological target: Gal4S(b1-4)GlcNAc
# Summary of the method: as §1
# [27] = biological target: Gal4S6S(b1-4)GlcNAc
# Summary of the method: as §1
# [28] = biological target: Gal6P(b1-4)GlcNAc
# Summary of the method: as §1
# [29] = biological target: Gal6S(b1-3)GlcNAc
# Summary of the method: as §1
# [30] = biological target: Gal6S(b1-3)GlcNAc6S
# Summary of the method: as §1
# [31] = biological target: Gal6S(b1-4)Glc
# Summary of the method: as §1
# [32] = biological target: Gal6S(b1-4)Glc6S
# Summary of the method: as §1
# [33] = biological target: Gal6S(b1-4)GlcNAc
# Summary of the method: as §1
# [34] = biological target: Gal6S(b1-4)GlcNAc6S
# Summary of the method: as §1
# [35] = biological target: GalNAc(a1-3)Gal
# Summary of the method: as §1
# [36] = biological target: GalNAc(a1-3)GalNAc
# Summary of the method: as §1
# [37] = biological target: GalNAc(a1-3)GalNAc(b1-3)Gal(a1-4)Gal(b1-4)Glc
# Summary of the method: as §1
binder,measurement,setting,value
"Siglec-9 (Homo sapiens), Q9Y336 (protein) MLLLLLPLLWGRERAEGQTSKLLTMQSSVTVQEGLCVHVPCSFSYPSHGWIYPGPVVHGYWFREGANTDQDAPVATNNPARAVWEETRDRFHLLGDPHTKNCTLSIRDARRSDAGRYFFRMEKGSIKWNYKHHRLSVNVTALTHRPNILIPGTLESGCPQNLTCSVPWACEQGTPPMISWIGTSVSPLDPSTTRSSVLTLIPQPQDHGTSLTCQVTFPGASVTTNKTVHLNVSYPPQNLTMTVFQGDGTVSTVLGNGSSLSLPEGQSLRLVCAVDAVDSNPPARLSLSWRGLTLCPSQPSNPGVLELPWVHLRDAAEFTCRAQNPLGSQQVYLNVSLQSKATSGVTQGVVGGAGATALVFLSFCVIFVVVRSCRKKSARPAAGVGDTGIEDANAVRGSASQGPLTEPWAEDSPPDQPPPASARSSVGEGELQYASLSFQMVKPWDSRGQEATDTEYSEIKIHR",glycan array binding signal (z-score),[1],0.262
same,glycan array binding signal (z-score),[2],-0.065
same,glycan array binding signal (z-score),[3],-0.032
same,glycan array binding signal (z-score),[4],-0.248
same,glycan array binding signal (z-score),[5],-0.192
same,glycan array binding signal (z-score),[6],-0.221
same,glycan array binding signal (z-score),[7],-0.401
same,glycan array binding signal (z-score),[8],-0.302
same,glycan array binding signal (z-score),[9],-0.17
same,glycan array binding signal (z-score),[10],-0.219
same,glycan array binding signal (z-score),[11],-0.148
same,glycan array binding signal (z-score),[12],-0.074
same,glycan array binding signal (z-score),[13],-0.1
same,glycan array binding signal (z-score),[14],-0.157
same,glycan array binding signal (z-score),[15],-0.151
same,glycan array binding signal (z-score),[16],-0.131
same,glycan array binding signal (z-score),[17],0.072
same,glycan array binding signal (z-score),[18],0.141
same,glycan array binding signal (z-score),[19],-0.121
same,glycan array binding signal (z-score),[20],0.094
same,glycan array binding signal (z-score),[21],0.136
same,glycan array binding signal (z-score),[22],0.139
same,glycan array binding signal (z-score),[23],-0.355
same,glycan array binding signal (z-score),[24],-0.091
same,glycan array binding signal (z-score),[25],0.189
same,glycan array binding signal (z-score),[26],-0.304
same,glycan array binding signal (z-score),[27],-0.088
same,glycan array binding signal (z-score),[28],0.071
same,glycan array binding signal (z-score),[29],-0.117
same,glycan array binding signal (z-score),[30],-0.069
same,glycan array binding signal (z-score),[31],-0.152
same,glycan array binding signal (z-score),[32],0.024
same,glycan array binding signal (z-score),[33],-0.174
same,glycan array binding signal (z-score),[34],-0.076
same,glycan array binding signal (z-score),[35],-0.173
same,glycan array binding signal (z-score),[36],-0.162
same,glycan array binding signal (z-score),[37],-0.273
